{"source": "PubChem BioAssay AID485344", "about": "(National Center for Advancing Translational Sciences (NCATS), 2010)", "note": "About 6,900 (2%) of roughly 340,000 compounds were called active. Cut-off read from the data, not from the text of the source: active = inhibition above about 30%; inactive = below that, where a call was filed. The entries are a selection whose mix differs from that of the whole data set. Entries without a call were filed so in the source.", "data": [{"target": "D(2) dopamine receptor (Homo sapiens) (UniProt P14416)", "sequence (P14416 whole entry, looked up)": "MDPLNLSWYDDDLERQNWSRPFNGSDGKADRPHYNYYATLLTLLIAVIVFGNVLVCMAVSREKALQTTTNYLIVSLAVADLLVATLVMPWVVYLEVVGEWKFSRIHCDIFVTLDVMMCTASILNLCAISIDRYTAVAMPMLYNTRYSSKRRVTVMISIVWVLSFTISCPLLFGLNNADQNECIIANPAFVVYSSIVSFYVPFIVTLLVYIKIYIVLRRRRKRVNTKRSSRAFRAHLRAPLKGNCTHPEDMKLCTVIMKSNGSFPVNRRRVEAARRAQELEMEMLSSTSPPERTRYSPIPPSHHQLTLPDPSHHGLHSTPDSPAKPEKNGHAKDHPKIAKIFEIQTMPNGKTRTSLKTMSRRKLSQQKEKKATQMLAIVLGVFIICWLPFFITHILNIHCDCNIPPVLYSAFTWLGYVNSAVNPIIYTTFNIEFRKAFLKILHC", "assay": "HTS Assay for Allosteric Antagonists of the Human D2 Dopamine Receptor: Primary Screen for Antagonists; note: 0% is about no effect", "details": "HEK293 TREx D2 cells, calcium flux, dopamine EC80; at 10 µM; stronger effect = higher value", "outline": "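Measurement of antagonist activity uses fluorescent calcium dye in inducible HEK293 T-REx D2 cells: 10 s baseline, compound addition with 180 s read, EC80 dopamine addition with a further 180 s read.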", "values": [{"compound": "N#Cc1c(C(F)(F)F)cc(-c2ccccc2Cl)[nH]c1=O", "inhibition": "active: 44.4%"}, {"compound": "COc1ccc(CCNC(=O)C(=O)NCC(c2ccco2)S(=O)(=O)c2ccc(F)cc2)cc1", "note": "(centres undefined)", "inhibition": "-13.8%"}, {"compound": "O=C1CCSC2(C(=O)N(Cc3ccc(F)cc3)c3ccccc32)N1c1ccc(F)c(F)c1", "note": "(centres undefined)", "inhibition": "8.34%"}, {"compound": "CCc1ccc(-c2nc(CS(=O)CC(=O)NCCc3ccc(Cl)cc3)c(C)o2)cc1", "note": "(centres undefined)", "inhibition": "-2.22%"}, {"compound": "CS(=O)(=O)N1CCC(N2CCN(Cc3ccccc3)C(=O)C2=O)CC1", "inhibition": "2.77%"}, {"compound": "CCOc1ccc2oc(=O)cc(CN3CCN(C(=O)c4ccc(F)cc4)CC3)c2c1", "inhibition": "-12.2%"}, {"compound": "CCNC(=O)CC1C(=O)N(c2cccc(OC)c2)C(=O)N1Cc1ccc(OC)c(OC)c1", "note": "(centres undefined)", "inhibition": "-5.58%"}, {"compound": "Cc1c(C(=O)Nc2cccc(Cl)c2)oc2ccc(S(=O)(=O)N(C)C3CCCCC3)cc12", "inhibition": "23.6%"}, {"compound": "COc1cccc(NC(=O)Cn2c(=O)n(-c3ccc(C)cc3)c(=O)c3ccc(C(=O)NCc4ccco4)cc32)c1", "inhibition": "-12.3%"}, {"compound": "Cc1nc2ncnn2c(C)c1CCC(=O)NCc1ccccc1Cl", "inhibition": "-7.81%"}, {"compound": "CCOc1ccccc1N(CC(=O)N1CCc2ccccc2C1)S(=O)(=O)c1ccccc1", "inhibition": "-0.205%"}, {"compound": "O=S(=O)(Nc1cccc(-c2ccc(N3CCCCCC3)nn2)c1)c1cccc(F)c1", "inhibition": "-15.9%"}, {"compound": "CCN(CC)S(=O)(=O)c1ccc2c(c1)c(=O)c(C(=O)N1CCN(c3ccc(F)cc3)CC1)cn2C", "inhibition": "-8.34%"}, {"compound": "CC(=O)N1CCc2cc(S(=O)(=O)CCC(=O)NCc3ccc(Cl)cc3)ccc21", "inhibition": "1.7%"}, {"compound": "O=C(Cn1ncc2c3ccccc3n(Cc3cccc(Cl)c3)c2c1=O)NC1CCCCCC1", "inhibition": "1.96%"}, {"compound": "CCc1ccc(NC(=O)CSC2=Nc3ccccc3C3=NC(CC(=O)NCc4ccccc4)C(=O)N23)cc1", "note": "(centres undefined)", "inhibition": "6.14%"}, {"compound": "CCN1CCSc2ccc(C(=O)NCc3ccc(OC)cc3)cc21", "inhibition": "-7.73%"}, {"compound": "COC(=O)CCN(c1ccccc1)S(=O)(=O)c1cc(-c2cc(C)no2)ccc1OC", "inhibition": "-1.2%"}, {"compound": "O=C(NCCCc1ccccc1)C1CCN(C(=O)N2CCOc3ccc(Cl)cc32)CC1", "inhibition": "11.5%"}, {"compound": "Cn1ccc2c(OCC(=O)Nc3cc(C(F)(F)F)ccc3Cl)cccc2c1=O", "inhibition": "2.07%"}, {"compound": "COc1ccc(C2C=C(c3ccccc3)Nc3nc(NC(=O)/C=C/c4ccccc4)nn32)cc1", "note": "(centres undefined)", "inhibition": "27.3%"}, {"compound": "COc1ccc(/C=C/C(=O)Nc2ccccc2C(=O)O)cc1", "inhibition": "active: 33.7%"}, {"compound": "CCOc1ccccc1NC(=O)CCn1nc(C)c(S(=O)(=O)N2CCCCC2)c1C", "inhibition": "2.84%"}, {"compound": "CCN(CC)S(=O)(=O)c1ccc2oc(C(=O)N(C)Cc3ccccc3)c(C)c2c1", "inhibition": "15.7%"}, {"compound": "CCCCOc1cccc(C(=O)N(Cc2sccc2C)C2CCS(=O)(=O)C2)c1", "note": "(centres undefined)", "inhibition": "7.75%"}, {"compound": "Cc1cc(Nc2cccc(Cl)c2)nc2ccc(NC(=O)Cc3cccc(C(F)(F)F)c3)cc12", "inhibition": "1.28%"}, {"compound": "COc1cc(C2CC(=O)Nc3cc4c(cc32)OCCO4)cc(Br)c1OC", "note": "(centres undefined)", "inhibition": "4.48%"}, {"compound": "COc1ccc(Cn2c(=O)c3oc4ccccc4c3n(Cc3ccc(F)cc3)c2=O)cc1", "inhibition": "10.7%"}, {"compound": "COc1ccc(CNC(=O)c2ccc(NC(=O)N3CCCCc4ccccc43)cc2)cc1", "inhibition": "15.1%"}, {"compound": "COc1ccc(CNC(=O)c2cc3c(=O)oc4ccc(C)cc4c3s2)c(OC)c1", "inhibition": "13.3%"}, {"compound": "Cc1cccc(NC(=O)C(=O)NCC(c2ccc3c(c2)OCO3)N2CCN(C)CC2)c1C", "note": "(centres undefined)", "inhibition": "-14%"}, {"compound": "Fc1ccc(-c2noc3ncnc(NC4CCCCC4)c23)cc1", "inhibition": "3.09%"}, {"compound": "CCc1ccccc1NC(=O)C1=C(C)C(=O)OC12CCCCCC2", "inhibition": "-23.1%"}, {"compound": "COc1cc(CN2CCN(S(=O)(=O)c3ccccc3)CC2)cc(OC)c1O", "inhibition": "3.75%"}, {"compound": "COc1ccc(CC(=O)NC(CC(=O)O)c2ccc(OC)cc2)cc1", "note": "(centres undefined)", "inhibition": "active: 36.5%"}, {"compound": "Cc1cc(=O)oc2cc(NC(=O)C(C)Oc3ccc(F)cc3)ccc12", "note": "(centres undefined)", "inhibition": "active: 35.3%"}, {"compound": "O=C(CNS(=O)(=O)c1cccs1)N1CCN(c2cccc(C(F)(F)F)c2)CC1", "inhibition": "3.41%"}, {"compound": "COc1ccc(CNC(=O)c2ccc(CS(=O)(=O)c3ccccc3OC)o2)cc1", "inhibition": "-2.03%"}, {"compound": "O=C(NCCc1nc2ccccc2n1Cc1ccc(F)cc1)c1ccco1", "inhibition": "3.43%"}, {"compound": "CCN(CC)S(=O)(=O)c1ccc2c(c1)N(CC(=O)N1CCN(c3ccc(F)cc3)CC1)C(=O)CO2", "inhibition": "3.53%"}, {"compound": "Cc1ccc(C)c(-c2[nH]c3c(c2-c2c(-n4cccc4)n(C)c(=O)[nH]c2=O)c(=O)[nH]c(=O)n3C)c1", "inhibition": "-1.28%"}, {"compound": "Cc1ccc(-c2nc(CCNC(=O)C(=O)Nc3ccc(C)cc3C)cs2)cc1", "inhibition": "-10.4%"}, {"compound": "OCCN1CCN(c2ncnc3nc[nH]c23)CC1", "inhibition": "active: 33.9%"}, {"compound": "N#CC1(NC(=O)COC(=O)C2=COCCO2)CCCCC1", "inhibition": "active: 50%"}, {"compound": "COc1ccc(-n2cc(C(=O)NCc3ccccc3)c3ccccc3c2=O)cc1", "inhibition": "11.6%"}, {"compound": "O=C(CSc1nc2ccccc2n1Cc1ccccc1)N1CCN(c2ccc(F)cc2)CC1", "inhibition": "5.95%"}, {"compound": "CCCCN(C)C(=O)c1ccc(S(=O)(=O)N2CCOCC2)cc1", "inhibition": "active: 32.6%"}, {"compound": "Cc1cc(Cl)ccc1NC(=O)c1cc(S(=O)(=O)N2CCOCC2)cn1C", "inhibition": "2.46%"}, {"compound": "O=C1CC(c2nc3ccccc3[nH]2)CN1c1cccc(Cl)c1", "note": "(centres undefined)", "inhibition": "5.82%"}]}]}
